Data taken from PubChem BioAssay AID588855 (National Center for Advancing Translational Sciences (NCATS), 2011).
In all, about 410,000 compounds went through this assay and about 5,000 (1.2%) were called active. The inconclusive results got no clear call from the source; some entries with a clear call stand among them for comparison. Calls come from the whole dose curve; as a rule, active = well fitted inhibition curve with a large enough effect; inconclusive = small, poorly fitted or top-dose-only effect; inactive = no such curve, though single readings can be large or run the other way. A potency beside an inconclusive call is a rough fit, not a confirmed value.

test: qHTS for Inhibitors of TGF-b; conditions: HepG2 CAGA-GFP TGF-b/SMAD3 reporter, GFP fluorescence, 18 h, TGF-beta stimulated, 500 pg/mL final; series mostly up to 46.1 µM; note: nearly all actives have a fitted effect of over 65% in size
Summary of the method: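 Inhibition was scored as loss of TGF-beta-induced (500 pg/mL final, 18 hours, 37 degrees C) GFP in HEPG2 cells carrying a CAGA-GFP reporter, in DMEM with 1% FBS. Well GFP was summed per cell; Activity was normalised to unstimulated and stimulated DMSO wells, then concentration-response fitting.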
Potency is the fitted concentration of half-maximal effect; tags give direction and shape of the fitted curve.

Structure (SMILES) | Potency
CCN(c1ccccc1)S(=O)(=O)c1cccc(C(=O)NCc2cccnc2)c1 | inactive
Cc1c(C(=O)N2CCc3ccccc3C2)oc2ccc(S(=O)(=O)N3CC(C)CC(C)C3)cc12 (configuration not stated) | inconclusive: 11.2 µM [inhibitor, partial curve, poor fit]
COc1ccccc1-n1c(C)nc2cc(C(=O)NCC3CCCO3)ccc21 (configuration not stated) | inconclusive: 22.4 µM [inhibitor, single point]
CCCCN(CCCNC(=O)CN1C(=O)COc2ccc(S(=O)(=O)N3CCC(C)CC3)cc21)Cc1ccccc1 | inconclusive: 3.16 µM [inhibitor, single point]
COc1ccc(CCNC(=O)c2cnn(-c3ccc(F)cc3)c2C2CCN(C(=O)OC(C)(C)C)CC2)cc1OC | inconclusive: 15.8 µM [inhibitor, partial curve, poor fit]
CCOC(=O)C1=CCN(S(=O)(=O)c2ccccc2C)C1c1ccccc1 (configuration not stated) | inconclusive: 35.5 µM [inhibitor, single point]
Cc1ccc(-c2csc(NC(=O)C3CC(=O)N(Cc4ccco4)C3)n2)cc1 (configuration not stated) | inconclusive: 11.2 µM [inhibitor, partial curve]
O=C(CN1C(=O)C2(SCC(=O)N2c2ccc(F)c(F)c2)c2ccccc21)NCCc1ccccc1 (configuration not stated) | inactive
O=C(NCCc1ccccc1)C1CCC(=O)N(CCCN2CCCC2=O)C1 (configuration not stated) | inactive
CCOc1cc(C(c2c(C)[nH]n(-c3ccccc3)c2=O)c2c(C)[nH]n(-c3ccccc3)c2=O)ccc1O | active: 11.2 µM
O=C(Nc1ccc(Cl)cc1)C1c2cccc[n+]2CC(=O)N1Cc1ccc2c(c1)OCO2 (configuration not stated) | inconclusive: 17.8 µM [inhibitor, single point]
COc1ccccc1C=NN=Cc1ccccc1O | inactive
CCc1ccc(NC(=O)CSc2nc3nc(C)cc(C)n3n2)cc1 | inactive
CCC(=O)N1c2ccccc2NC2=C(C(=O)CCC2)C1c1ccc(N(C)C)cc1 (configuration not stated) | inactive
O=C(CN1C(=O)NC2(CCCC2)C1=O)OCc1ccc(Br)cc1 | inactive
COc1cc(/C=C/C(C)=O)cc(OC)c1OC | inactive
COc1ccc(-c2noc(N3CCC(C(=O)Nc4cccc(C)c4C)CC3)n2)cc1 | inconclusive: 3.16 µM [inhibitor, partial curve]
O=C1CSc2ccc(C(=O)Nc3cccc(S(=O)(=O)Nc4ccc(Br)cc4)c3)cc2N1 | active: 12.6 µM
COc1ccc(-c2cc(C(=O)NCc3cccc(C(F)(F)F)c3)[nH]n2)c(C)c1 | inconclusive: 22.4 µM [inhibitor, single point]
C=CCNc1nc(Nc2ccc([N+](=O)[O-])cc2)nc(N2CCCC2)n1 | inactive
CNc1nc(-c2ccccc2)nnc1C(F)(F)F | inactive
CCCn1c(SCc2nc3sc(C)c(C)c3c(=O)[nH]2)nc2ccccc2c1=O | inactive
CC(C)=CCC/C(C)=C/CNC(=O)C[C@H]1C[C@H](C(=O)N2CCOCC2)[C@@]2(C)c3[nH]c4cc(-c5ccco5)ccc4c3CCN2C1=O | active: 12.6 µM
Cc1ccc(NC(=O)c2ccc(NCCN)c([N+](=O)[O-])c2)cc1 | inactive

Structure (SMILES) | Potency
COc1ccc(-n2c(/C=C/c3cccc4ccccc34)nc3ccccc3c2=O)cc1OC | inconclusive: 35.5 µM [inhibitor, partial curve, poor fit]
CCC(Sc1nc2nccnc2c(=O)n1Cc1ccccc1Cl)C(=O)NC1CCCCC1 (configuration not stated) | inconclusive: 10 µM [inhibitor, partial curve]
CCN(CC)c1nc(-c2ccccc2)ncc1S(=O)(=O)c1ccc(C)cc1 | inconclusive: 35.5 µM [inhibitor, single point]
CC1(Cc2cccc(C#N)c2)C(=O)Nc2ccc(-c3cccc(C(F)(F)F)c3)cc21 (configuration not stated) | inconclusive: 25.1 µM [inhibitor, single point]
COc1ccc(N(C(=O)c2ccco2)C(C(=O)NC2CCCCC2)c2cccs2)cc1OC (configuration not stated) | inactive
COc1ccc(NC(=O)c2c(NCc3ccc(C)o3)sc3c2CCCCC3)c(OC)c1 | inconclusive: 11.2 µM [inhibitor, partial curve, poor fit]
COc1ccc(NC(=O)[C@@H]2CCCN2C(=O)[C@@H]2Cc3ccccc3CN2C(=O)OC(C)(C)C)cc1 | inconclusive: 11.2 µM [inhibitor, single point]
NC(=O)c1ccc(NC(=O)CNC(c2ccccc2)c2ccccc2)cc1 | inactive
O=C(C1COc2ccccc2O1)N1CCN(c2nc3c(F)cc(F)cc3s2)CC1 (configuration not stated) | inconclusive: 35.5 µM [inhibitor, single point]
COc1ccc(CCNC(=O)COC(=O)CCC(=O)c2ccc(F)cc2)cc1OC | inactive
COc1ccccc1NC(=O)CSc1nc2n[nH]c(C)c2c(=N)n1-c1ccccc1Cl | inactive
COc1cccc(/C=N/NC(=S)Nc2cccc(C(=O)O)c2)c1O | inactive
CN(c1ccccc1)S(=O)(=O)c1cccc(NC(=O)c2cncc(Br)c2)c1 | inconclusive: 12.6 µM [inhibitor, partial curve, poor fit]
c1ccc(CC(Cc2ccccc2)c2ccccn2)cc1 | inconclusive: 35.5 µM [inhibitor, single point]
Cc1ccc(Cl)cc1N1CCN(CC(O)COCc2ccco2)CC1 (configuration not stated) | inconclusive: 17.8 µM [inhibitor, single point]
CCn1c(SC(C)C(=O)Nc2ccc3c(c2)OCCO3)nnc1C1CC1 (configuration not stated) | inactive
O=C(CCl)Nc1cc(-c2ccccc2)nn1-c1ccccc1 | inconclusive: 20 µM [inhibitor, partial curve, poor fit]
COc1cccc(C2N=C(c3ccccc3C)NO2)c1OC (configuration not stated) | inconclusive: 0.112 µM [inhibitor, full curve, poor fit]
Cc1ccc(S(=O)(=O)NCCC(=O)Nc2cc(S(=O)(=O)N(C)C)ccc2C)cc1C | inactive
COC(=O)c1cccc(Cn2nc(C)c([N+](=O)[O-])c2C)c1 | inactive
COc1cc(C(=O)Nc2ccccc2N2CCN(S(C)(=O)=O)CC2)cc(OC)c1OC | inactive
C=CCn1c(CNC(=O)c2ccccc2F)nnc1SCC(=O)NC(C)c1ccccc1 (configuration not stated) | inconclusive: 3.98 µM [inhibitor, single point]
O=C1/C(=C\c2cccs2)SC(=S)N1C1CCS(=O)(=O)C1 (configuration not stated) | inactive
O=c1c2ccccc2nc(-c2ccccc2)n1CCCN1CCOCC1 | inactive

Structure (SMILES) | Potency
CCOC(=O)N1CCN(C(=O)c2ccc3c(c2)N(C)C(=O)/C(=C\c2ccc(OCC)c(OC)c2)S3)CC1 | inconclusive: 22.4 µM [inhibitor, single point]
Fc1ccc(CNCCCSc2nnnn2-c2ccccc2)cc1 | inconclusive: 12.6 µM [inhibitor, single point]
COc1ccc(NC(=O)CSCc2cc(=O)c3cc(C)ccc3[nH]2)cc1 | inactive
CCc1ccc2oc(-c3cc(N=Cc4cccc(OC)c4O)ccc3O)nc2c1 | inactive
CCOc1ccc(S(=O)(=O)N2CCN(C(=O)COc3ccc(Br)cc3)CC2)cc1 | inconclusive: 11.2 µM [inhibitor, partial curve]
CC(C)C1C2=C(CC(C)(C)CC2=O)ON1c1ccccc1 (configuration not stated) | inconclusive: 8.91 µM [inhibitor, partial curve]
CCOC(=O)CSc1nc2sc3c(c2c(=O)[nH]1)CC(C)(C)OC3 | inconclusive: 14.1 µM [inhibitor, single point]
Cc1ncc(N=Nc2ccccc2Cl)c(-c2ccccc2)n1 | inactive
O=C(Nc1cccc(F)c1)c1ccc2oc(=O)n(Cc3ccccc3)c2c1 | inconclusive: 3.16 µM [inhibitor, partial curve, poor fit]
CC(C)OC(=O)CN1CCN(C2c3ccccc3-c3ccccc32)CC1 | inconclusive: 2.82 µM [inhibitor, single point]
CCN(CC)CCn1c(=S)[nH]c2cc(C(=O)NCc3ccccc3Cl)ccc2c1=O | inactive
O=C(CCc1ccc(CCC(=O)c2cccs2)s1)c1cccs1 | inconclusive: 22.4 µM [inhibitor, single point]
CCCNC(=O)c1cc2cc([N+](=O)[O-])ccc2s1 | inactive
O=C(CCc1nc2ccccc2s1)Nc1ccccc1 | inconclusive: 6.31 µM [inhibitor, single point]
O=C(N/N=C/c1ccc(O)c(O)c1)c1ccc(-n2cnnn2)cc1 | inconclusive: 6.31 µM [inhibitor, single point]
COc1ccc(CCNC(=O)C(=O)NCC2OCCN2C(=O)c2ccc(Cl)cc2)cc1OC (configuration not stated) | inactive
O=C(C[n+]1cccc(Br)c1)c1ccc(-c2ccccc2)cc1 | inactive
CC(=O)Nc1ccc(NCCc2ccco2)cc1 | inactive
Cc1cc(C(=O)NCC2COc3ccccc3O2)c2ccccc2n1 (configuration not stated) | inactive
CCOc1ccc(NC(=O)CSc2nc3c(c(=O)n2C)SC(C)C3)cc1 (configuration not stated) | inactive
CCCC1(CCC)NC(=O)N(CC(=O)Nc2ccc3c(c2)OCCO3)C1=O | inactive
COc1cc(CCN(C(=O)c2cc3ccccc3[nH]2)C(c2ccccn2)c2nc3ccccc3[nH]2)cc(OC)c1 (configuration not stated) | inconclusive: 11.2 µM [inhibitor, partial curve, poor fit]
Cc1ccc(S(=O)(=O)N2CCCCC2)cc1NC(=O)CNc1ccc(C(F)(F)F)cc1 | inconclusive: 14.1 µM [inhibitor, partial curve, poor fit]
CCOc1ccc(N(CC(=O)NCc2ccc(OC)cc2)S(=O)(=O)c2c(C)[nH]c(=O)[nH]c2=O)cc1 | inconclusive: 17.8 µM [inhibitor, single point]
